Results from the supplement of paper PMC11741623.
The list shows a part of the results. Interaction screen of human proteins with wild-type SARS-CoV-2 proteins by split-DHFR complementation in yeast, 1 µg/mL methotrexate. Value = fitness of the pair (three or more lineages) minus that of the viral protein without a human partner, on a scale set by negative (0) and fused positive (1) controls, mean of up to three cultures; higher = more likely to interact. Active = false discovery rate below 0.05 (one-sided t-test) in at least one culture. Nearly all pairs are not hits, and differences among them are mostly noise (correlation between cultures about 0.3); most hits were seen in one culture only. Human sequences are the Swiss-Prot entries looked up by gene name; the clone may be another isoform. NSP2 values were corrected by the authors for a growth advantage. Listed are human proteins with a hit and a random twelfth of the others.

Legend:
Assay in all cases: yeast fitness gain over the viral ORF with no human partner (scaled fitness); higher = more likely to interact
[1] = target: SARS-CoV-2 E
Experimental: (§1)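 Split mouse DHFR complementation in pooled diploid yeast: human ORFeome clones carry one fragment and viral ORFs the other; barcoded lineages compete in 1 µg/mL methotrexate and fitness is read by barcode sequencing in up to three cultures.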

[2] = target: SARS-CoV-2 M
Experimental: as §1

[3] = target: SARS-CoV-2 N
Experimental: as §1

[4] = target: SARS-CoV-2 NSP1
Experimental: as §1

[5] = target: SARS-CoV-2 NSP10
Experimental: as §1

[6] = target: SARS-CoV-2 NSP12
Experimental: as §1

[7] = target: SARS-CoV-2 NSP13
Experimental: as §1

[8] = target: SARS-CoV-2 NSP14
Experimental: as §1

[9] = target: SARS-CoV-2 NSP15
Experimental: as §1

[10] = target: SARS-CoV-2 NSP16
Experimental: as §1

[11] = target: SARS-CoV-2 NSP2
Experimental: as §1

[12] = target: SARS-CoV-2 NSP4
Experimental: as §1

[13] = target: SARS-CoV-2 NSP5
Experimental: as §1

[14] = target: SARS-CoV-2 NSP6
Experimental: as §1

[15] = target: SARS-CoV-2 NSP7
Experimental: as §1

[16] = target: SARS-CoV-2 NSP8
Experimental: as §1

[17] = target: SARS-CoV-2 NSP9
Experimental: as §1

[18] = target: SARS-CoV-2 ORF10
Experimental: as §1

[19] = target: SARS-CoV-2 ORF3A
Experimental: as §1

[20] = target: SARS-CoV-2 ORF3B
Experimental: as §1

[21] = target: SARS-CoV-2 ORF6
Experimental: as §1

[22] = target: SARS-CoV-2 ORF7A
Experimental: as §1

[23] = target: SARS-CoV-2 ORF7B
Experimental: as §1

[24] = target: SARS-CoV-2 ORF8
Experimental: as §1

[25] = target: SARS-CoV-2 ORF9B
Experimental: as §1

[26] = target: SARS-CoV-2 ORF9Bwu (the 73-codon ORF)
Experimental: as §1

[27] = target: SARS-CoV-2 S
Experimental: as §1

| Binder | yeast fitness gain [1] | yeast fitness gain [2] | yeast fitness gain [3] | yeast fitness gain [4] | yeast fitness gain [5] | yeast fitness gain [6] | yeast fitness gain [7] | yeast fitness gain [8] | yeast fitness gain [9] | yeast fitness gain [10] | yeast fitness gain [11] | yeast fitness gain [12] | yeast fitness gain [13] | yeast fitness gain [14] | yeast fitness gain [15] | yeast fitness gain [16] | yeast fitness gain [17] | yeast fitness gain [18] | yeast fitness gain [19] | yeast fitness gain [20] | yeast fitness gain [21] | yeast fitness gain [22] | yeast fitness gain [23] | yeast fitness gain [24] | yeast fitness gain [25] | yeast fitness gain [26] | yeast fitness gain [27] |
| --- | --- | --- | --- | --- | --- | --- | --- | --- | --- | --- | --- | --- | --- | --- | --- | --- | --- | --- | --- | --- | --- | --- | --- | --- | --- | --- | --- |
| HLA-DOB, P13765 (protein) MGSGWVPWVVALLVNLTRLDSSMTQGTDSPEDFVIQAKADCYFTNGTEKVQFVVRFIFNLEEYVRFDSDVGMFVALTKLGQPDAEQWNSRLDLLERSRQAVDGVCRHNYRLGAPFTVGRKVQPEVTVYPERTPLLHQHNLLHCSVTGFYPGDIKIKWFLNGQEERAGVMSTGPIRNGDWTFQTVVMLEMTPELGHVYTCLVDHSSLLSPVSVEWRAQSEYSWRKMLSGIAAFLLGLIFLLVGIVIQLRAQKGYVRTQMSGNEVSRAVLLPQSC | inactive: 0.0202 | inactive: -0.0308 | inactive: 0.021 | inactive: -0.0179 | inactive: 0.000708 | inactive: 0.0308 | inactive: 0.0176 | inactive: -0.033 | inactive: 0.0463 | inactive: 0.107 | inactive: -0.162 | inactive: -0.127 | inactive: 0.026 | inactive: 0.0599 | inactive: -0.02 | inactive: -0.00401 | inactive: -0.0829 | inactive: 0.00165 | inactive: -0.00466 | inactive: -0.0179 | inactive: 0.0124 | inactive: 0.0787 | inactive: -0.0175 | inactive: -0.0183 | inactive: 0.0106 | inactive: 0.0739 | inactive: 0.0218 |
| KCNJ12, Q14500 (protein) MTAASRANPYSIVSSEEDGLHLVTMSGANGFGNGKVHTRRRCRNRFVKKNGQCNIEFANMDEKSQRYLADMFTTCVDIRWRYMLLIFSLAFLASWLLFGIIFWVIAVAHGDLEPAEGRGRTPCVMQVHGFMAAFLFSIETQTTIGYGLRCVTEECPVAVFMVVAQSIVGCIIDSFMIGAIMAKMARPKKRAQTLLFSHNAVVALRDGKLCLMWRVGNLRKSHIVEAHVRAQLIKPRVTEEGEYIPLDQIDIDVGFDKGLDRIFLVSPITILHEIDEASPLFGISRQDLETDDFEIVVILEGMVEATAMTTQARSSYLANEILWGHRFEPVLFEEKNQYKIDYSHFHKTYEVPSTPRCSAKDLVENKFLLPSANSFCYENELAFLSRDEEDEADGDQDGRSRDGLSPQARHDFDRLQAGGGVLEQRPYRRESEI | inactive: 0.0497 | inactive: 0.0682 | inactive: -0.0482 | inactive: -0.0629 | inactive: 0.0209 | inactive: 0.000294 | inactive: -0.0372 | inactive: 0.128 | inactive: -0.0597 | inactive: -0.0504 | inactive: -0.0183 | inactive: 0.0428 | inactive: -0.0126 | inactive: 0.0161 | inactive: -0.041 | inactive: 0.000856 | inactive: 0.0277 | inactive: -0.0223 | inactive: 0.0237 | inactive: 0.053 | inactive: 0.0184 | inactive: -0.0321 | inactive: 0.0694 | inactive: 0.0479 | inactive: 0.0663 | inactive: -0.0598 | inactive: -0.0374 |
| KDELR1, P24390 (protein) MNLFRFLGDLSHLLAIILLLLKIWKSRSCAGISGKSQVLFAVVFTARYLDLFTNYISLYNTCMKVVYIACSFTTVWLIYSKFKATYDGNHDTFRVEFLVVPTAILAFLVNHDFTPLEILWTFSIYLESVAILPQLFMVSKTGEAETITSHYLFALGVYRTLYLFNWIWRYHFEGFFDLIAIVAGLVQTVLYCDFFYLYITKVLKGKKLSLPA | inactive: 0.14 | – | inactive: 0.094 | – | – | – | – | – | inactive: 0.0312 | – | – | – | – | inactive: -0.0625 | – | – | inactive: -0.133 | – | inactive: -0.104 | – | – | – | – | – | – | – | – |
| NCF2, P19878 (protein) MSLVEAISLWNEGVLAADKKDWKGALDAFSAVQDPHSRICFNIGCMYTILKNMTEAEKAFTRSINRDKHLAVAYFQRGMLYYQTEKYDLAIKDLKEALIQLRGNQLIDYKILGLQFKLFACEVLYNIAFMYAKKEEWKKAEEQLALATSMKSEPRHSKIDKAMECVWKQKLYEPVVIPVGKLFRPNERQVAQLAKKDYLGKATVVASVVDQDSFSGFAPLQPQAAEPPPRPKTPEIFRALEGEAHRVLFGFVPETKEELQVMPGNIVFVLKKGNDNWATVMFNGQKGLVPCNYLEPVELRIHPQQQPQEESSPQSDIPAPPSSKAPGRPQLSPGQKQKEEPKEVKLSVPMPYTLKVHYKYTVVMKTQPGLPYSQVRDMVSKKLELRLEHTKLSYRPRDSNELVPLSEDSMKDAWGQVKNYCLTLWCENTVGDQGFPDEPKESEKADANNQTTEPQLKKGSQVEALFSYEATQPEDLEFQEGDIILVLSKVNEEWLEGECKGKVGIFPKVFVEDCATTDLESTRREV | inactive: -0.0364 | – | – | – | inactive: -0.00683 | inactive: -0.0104 | inactive: 0.0463 | – | inactive: -0.16 | – | active: 0.626 | – | inactive: -0.0209 | – | inactive: -0.325 | inactive: -0.046 | – | inactive: -0.0167 | inactive: -0.172 | inactive: -0.0877 | inactive: -0.0271 | inactive: -0.606 | – | – | inactive: -0.0421 | inactive: -0.108 | inactive: -0.133 |
| PMEPA1, Q969W9 (protein) MHRLMGVNSTAAAAAGQPNVSCTCNCKRSLFQSMEITELEFVQIIIIVVVMMVMVVVITCLLSHYKLSARSFISRHSQGRRREDALSSEGCLWPSESTVSGNGIPEPQVYAPPRPTDRLAVPPFAQRERFHRFQPTYPYLQHEIDLPPTISLSDGEEPPPYQGPCTLQLRDPEQQLELNRESVRAPPNRTIFDSDLMDSARLGGPCPPSSNSGISATCYGSGGRMEGPPPTYSEVIGHYPGSSFQHQQSSGPPSLLEGTRLHHTHIAPLESAAIWSKEKDKQKGHPL | inactive: 0.0205 | inactive: -0.0265 | inactive: -0.0509 | inactive: 0.0394 | inactive: -0.0094 | inactive: 0.00436 | inactive: 0.00905 | inactive: -0.453 | inactive: 0.0175 | inactive: 0.0408 | inactive: -0.146 | inactive: -0.0223 | inactive: 0.0623 | inactive: 0.0336 | inactive: 0.00545 | inactive: 0.0249 | inactive: 0.0425 | inactive: -0.00392 | inactive: 0.0351 | inactive: 0.0401 | inactive: 0.0379 | inactive: 0.0321 | inactive: -0.00614 | inactive: 0.0455 | inactive: -0.0189 | inactive: 0.0177 | inactive: -0.0308 |
